SMILES strings stand for the structures. Hit rate of the full screen: of about 48,000 compounds, about 1,200 (2.5%) were called active. Roughly 2% stayed inconclusive and do not appear here.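 Rule for the calls: active = activation of at least 60% and not above a set upper limit (about 1 call in 100 departs from these limits); inconclusive = activation of 40% to 60%, or above that upper limit; inactive = activation under 40%.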 The list shows a part of the results.

UniProt O75388, sequence (O75388 whole entry, looked up): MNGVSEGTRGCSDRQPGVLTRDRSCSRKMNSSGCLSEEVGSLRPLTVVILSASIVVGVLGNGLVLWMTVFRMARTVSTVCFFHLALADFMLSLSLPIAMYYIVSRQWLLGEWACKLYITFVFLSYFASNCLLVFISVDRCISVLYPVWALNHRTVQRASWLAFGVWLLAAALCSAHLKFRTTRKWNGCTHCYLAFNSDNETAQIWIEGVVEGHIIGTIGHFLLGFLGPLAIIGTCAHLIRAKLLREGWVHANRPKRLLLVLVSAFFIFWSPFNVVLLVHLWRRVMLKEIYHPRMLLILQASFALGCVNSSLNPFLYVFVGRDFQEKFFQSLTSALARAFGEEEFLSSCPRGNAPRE

In the assay the target is Probable G-protein coupled receptor 32 (Homo sapiens) (UniProt O75388). Kind of assay: qHTS for Agonists of Human Resolvin D1 Receptor DRV1. Note: 0% is about no effect. Conditions: CHO-K1 GPR32 beta-arrestin PathHunter luminescence, 90 min; at 76.9 µM; hits give high values; zero percent set by DMSO-only wells. Put shortly:
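CHO-K1 cells stably expressing ProLink-tagged GPR32 and Enzyme Activator-tagged beta-arrestin were seeded at 2,500 cells/well overnight, exposed to compounds for 90 min at 37 °C, then read by beta-Gal complementation chemiluminescence after 1 h detection reagent.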
(Quantitative high-throughput screening tests each substance at several concentrations.)
Turning to `CCCCOc1ccc(S(=O)(=O)NCc2csc(-c3ccc(OC)cc3)n2)cc1`, the activation is inactive: -5.31%.

On to `COc1ccc(CC(=O)NCC(c2cccs2)S(=O)(=O)c2ccc(Cl)cc2)cc1` (centres undefined), for which the activation is inactive: 0.402%.

As for `CCN(CC)CC1CCCCN1CC(=O)N1c2ccccc2C(=O)Nc2cccnc21` (centres undefined), the activation was inactive: -12.6%.

In the case of `Cc1ccc(S(=O)(=O)NCCc2nnc3ccc(SCc4ccc(F)cc4)nn23)cc1`, the activation was inactive: -18.7%.

For `Cc1cc(F)ccc1NC(=O)c1ccc2nc(Cc3ccccc3)oc2c1`, the activation was inactive: -24.3%.

`COc1ccc(-n2ccn(CC(=O)NCc3ccc(C)cc3)c(=O)c2=O)cc1OC`: the activation was inactive: -1.58%.

Consider `CCC(C(=O)Nc1cc(OC)ccc1OC)n1c(C)c2cnn(-c3ccccc3)c(=O)c2c1C` (centres undefined), for which the activation was inactive: 21.7%.

`Cc1c(C(=O)N2CCCC2)oc2c1-c1nn(CC(=O)NC(C)c3ccccc3)cc1CC2` (centres undefined): the activation is inactive: -11.5%.

As to `COc1ccccc1Cn1cc(C(=O)c2ccc(F)cc2)c(=O)c2cc3c(cc21)OCO3`, the activation was inactive: 2.87%.

Take `Cc1ccc(Nc2ncc(C(=O)N3CCN(c4cccc(Cl)c4)CC3)c3ccccc23)cc1Cl`: the activation was inactive: -7.69%.

On to `Cc1ccc2oc(C(=O)Nc3cccc(-c4nc5ccccc5s4)c3)c(C)c2c1`, for which the activation was inactive: 7.99%.

On to `Cc1ccc(C)c(N2CCN(C(=O)c3cc(S(=O)(=O)N4CCC(C)CC4)cn3C)CC2)c1`, for which the activation was inactive: -22.2%.

`COc1ccccc1C(=O)c1cn(CC(=O)Nc2ccccc2F)c2nc(C)ccc2c1=O`: the activation is inactive: -10.2%.

Regarding `O=C(OC1C[C@H]2CC[C@@H](C1)[N+]21CCCC1)C(O)(c1ccccc1)c1ccccc1` (some centres undefined), the activation is inactive: -0.294%.

As to `CC(C)c1ccc(NC(=O)CC2Oc3ccccc3NC2=O)cc1` (centres undefined), the activation was inactive: 45.8%.

In the case of `Cc1cc(OCC(=O)N(Cc2ccc(N(C)C)cc2)C2CCS(=O)(=O)C2)cc(C)c1Cl` (centres undefined), the activation was inactive: -31.3%.

As for `COc1cc(C(=O)NCCc2csc3nc(-c4ccccc4C)nn23)cc(OC)c1OC`, the activation is inactive: 10.2%.

Consider `COc1ccc(NC(=O)Cn2c(=O)n(-c3ccc(OC)cc3)c(=O)c3ccc(C(=O)NCc4ccc(C)cc4)cc32)cc1`, for which the activation was inactive: 28.3%.

With `Cc1ccc(Cl)cc1NC(=O)CN1C(=O)COc2ccc(S(=O)(=O)N3CCCCCC3)cc21`, the activation is inactive: -19%.

On to `COc1ccccc1CCNC(=O)CCc1c(C)c2cc3c(C)c(C)oc3cc2oc1=O`, for which the activation was inactive: -18.3%.

Take `Cc1ccc(NC(=O)C(=O)NCC(c2ccc3c(c2)OCO3)N2CCN(c3ccccc3)CC2)cc1` (centres undefined): the activation is inactive: 6.41%.

As to `CCN(C(=O)C(Cc1ccccc1)NS(=O)(=O)c1cccc2nsnc12)c1ccccc1` (centres undefined), the activation was inactive: -18.3%.

Turning to `O=C(c1cccs1)c1cn(CCOc2ccccc2Cl)c2ccccc12`, the activation is inactive: -13.6%.

For `CCOc1ccc(CCNC(=O)c2ccc(-c3nc(COc4ccc(C)cc4)c(C)o3)cc2)cc1`, the activation is inactive: -3.13%.

As for `CC1(C)C(=O)N(CCN2CCC(C(=O)c3ccc(F)cc3)CC2)c2ccccc21`, the activation is inactive: 2.35%.

As to `COc1ccc(NC(=O)CSc2nc(-c3ccc(F)cc3)c3cccc(C)c3n2)cc1`, the activation was inactive: -3.08%.

For `Cc1ccc(C)c(NC(=O)CCc2c(C)nn(-c3ccc(N4CCCC4)nn3)c2C)c1`, the activation is inactive: 1.81%.

As for `COCCCn1c(SCC(=O)Nc2ccccc2OC)nc2c(sc3ccccc32)c1=O`, the activation is inactive: -28.5%.

Take `COc1ccc(CCNC(=O)c2ccc(Cn3c(=O)c4ccccc4n(Cc4ccc(C)cc4)c3=O)cc2)cc1OC`: the activation was inactive: -1.19%.

`COc1ccc(C2C(=O)N(C3CCCCCC3)CC(=O)N2CCc2ccc(OC)c(OC)c2)cc1` (centres undefined): the activation is inactive: -16.8%.

On to `Cc1ccc2nc(CN3CCN(C(=O)Nc4ccc(C)c(F)c4)CC3)oc2c1`, for which the activation was inactive: -17.4%.

On to `CCOC(=O)C1CCCN(C(=O)Cn2ncn3c(cc4sc(CC)cc43)c2=O)C1` (centres undefined), for which the activation is inactive: -11%.

With `COC(=O)c1ccc(OC)c(Cn2c(=O)n(-c3cccc(Cl)c3)c(=O)c3c4c(sc32)CN(C(C)=O)CC4)c1`, the activation was inactive: 27.8%.

For `COc1ccc(-c2oc3ncn4nc(COc5ccccc5C)nc4c3c2-c2ccc(OC)cc2)cc1`, the activation was inactive: 24.4%.

`CCCCN(C)CCCNC(=O)c1cc(-c2cccnc2)nc2ccccc12`: the activation is inactive: 3.46%.

As to `CCC1=Nc2cc(C(=O)NCc3ccc(C)cc3)ccc2Sc2ccc(C)cc21`, the activation is inactive: -25.1%.

As for `COc1cc(OC)c(NC(=O)Cc2ccc(-n3c(C)nc4cccnc43)cc2)cc1Cl`, the activation is inactive: 24.6%.

Turning to `O=C(Nc1ccc(F)cc1)[C@@H](c1ccccc1)N1Cc2ccccc2C1=O`, the activation was inactive: -15%.

Turning to `COc1ccc(/C=C/c2nc(C#N)c(NCCc3ccccc3)o2)cc1OC`, the activation is inactive: -16.1%.

As to `COc1ccc(NC(=O)c2c(C)oc3ccc(O)c(CN4CCCCCC4)c23)cc1Cl`, the activation was inactive: -13%.

With `CC(=O)Nc1ccc(S(=O)(=O)Nc2cc(-c3cn4ccccc4n3)ccc2C)cc1`, the activation was inactive: 23.6%.

Take `COc1ccc(CCNC(=O)c2cn(C)c3ccc(S(=O)(=O)N(C)C4CCCCC4)cc3c2=O)cc1OC`: the activation was inactive: -3.54%.

In the case of `COc1ccc(OC)c(CCNC(=O)c2cnn(-c3ccccc3Cl)c2C2CCN(C(=O)OC(C)(C)C)CC2)c1`, the activation is inactive: -13.6%.

For `Cc1cccc(C(=O)Nc2c(C(=O)NCc3ccc(Cl)cc3)sc3nc(C)cc(C)c23)c1`, the activation was inactive: -21.2%.

On to `COc1ccc(Nc2nc3c(S(=O)(=O)c4ccccc4)nnn3c3ccsc23)cc1OC`, for which the activation is inactive: -9.12%.

With `COc1ccccc1NC(=O)C1=C(C)Nc2nnnn2C1c1cc(Br)c(O)c(OC)c1` (centres undefined), the activation is inactive: -37%.

On to `COc1ccc(-c2nsc(NC(=O)C(C)Oc3ccc(Cl)c(C)c3)n2)cc1` (centres undefined), for which the activation was inactive: -2.93%.

Take `COc1cccc(-n2c(=O)c3c(C)c(C)sc3n(CC(=O)NCc3ccccc3)c2=O)c1`: the activation is inactive: -6%.

Take `COc1ccc(NC(=O)c2cnc(Nc3ccc(C)c(Cl)c3)c3ccccc23)cc1OC`: the activation is inactive: -0.333%.

Turning to `Cc1ccc(C)c(Cn2c(=O)cc(C)c3c(C)nn(-c4cccc(F)c4)c32)c1`, the activation was inactive: -3.62%.

Take `Cc1sc2ncn(CC(=O)N3CCN(c4cccc(Cl)c4)CC3)c(=O)c2c1S(=O)(=O)N1CCN(c2ncccn2)CC1`: the activation is inactive: -6.13%.

On to `COc1ccccc1N1CCN(S(=O)(=O)CCNC(=O)COc2ccc(C(C)C)cc2)CC1`, for which the activation is inactive: -2.62%.

Turning to `CCCN(CCC)CCNC(=O)c1ccc2c(c1)NC(=O)C(CS(=O)(=O)Cc1cccc(Br)c1)N2` (centres undefined), the activation was inactive: -20.9%.

In the case of `COc1ccc(-c2nc(C)c(CCNC(=O)C(=O)Nc3cc(C)cc(C)c3)s2)cc1OC`, the activation was inactive: 17.2%.

In the case of `COc1ccc(-c2nc(SCc3cc(=O)c4cc(C)ccc4[nH]3)n[nH]2)cc1`, the activation is inactive: -18.2%.

On to `CCOc1ccccc1N1CC(c2nc3ccccc3n2Cc2c(C)cc(C)cc2C)CC1=O` (centres undefined), for which the activation was inactive: -1.98%.

Turning to `COc1ccc(NC(=O)c2ccc3c(SCC(=O)O)c4c(nc3c2)CCC4)c(OC)c1`, the activation was inactive: -11.9%.

Take `Cc1ccc(NC(=O)Cn2nc(C)n3cccc3c2=O)c(C)c1`: the activation was inactive: 0.347%.

As for `CC(=O)N1c2ccc(S(=O)(=O)NCC3CCC(C(=O)Nc4cccc(C)c4C)CC3)cc2CC1C` (centres undefined), the activation is inactive: -4.94%.

In the case of `CCOCCCNC(=O)C(c1ccc(OC)cc1)N(Cc1ccc2c(c1)OCO2)C(=O)c1ccccc1O` (centres undefined), the activation was inactive: -12.7%.

In the case of `Cc1ccccc1C(=O)Nc1c(C)nc(Nc2ccccc2)nc1Nc1ccccc1`, the activation is inactive: 5.32%.

Regarding `Cc1cccc(N2CCN(C(=O)c3cc4c(=O)n(C)c5ccccc5c4s3)CC2C)c1` (centres undefined), the activation was inactive: -2.7%.

Regarding `O=C(NCc1ccccc1)c1nc(S(=O)(=O)Cc2ccccc2)ncc1Cl`, the activation was inactive: -21.1%.

`CN1CCc2nc3sc(C(=O)Nc4ccccc4OC(F)(F)F)c(N)c3cc2C1`: the activation is inactive: -17%.

With `COC(=O)c1c(C)oc2ccc(N(C(=O)c3ccncc3)S(=O)(=O)c3c(C)cc(C)cc3C)cc12`, the activation is inactive: 12.9%.

Consider `Cc1cccn2c(=O)c3cc(C(=O)NCc4cccnc4)c(=N)n(CCCO)c3nc12`, for which the activation was inactive: 2.35%.

Turning to `CC(C)(C)c1ccc(C(=O)NC2(C(F)(F)F)C(=O)Nc3c2c(=O)[nH]c(=O)n3-c2ccccc2)cc1` (centres undefined), the activation was inactive: 4.35%.

With `Cc1sc2ncn(CC(=O)N3CCN(c4ccc(Cl)cc4)CC3)c(=O)c2c1S(=O)(=O)N1CCN(c2ncccn2)CC1`, the activation was inactive: 8.49%.

For the molecule `Cc1ccc(Cn2c(SCC(=O)C(C)(C)C)nc3ccsc3c2=O)cc1`, the activation was inactive: -21.3%.

With `CC1=Nc2cc(C(=O)NCCc3ccccc3)ccc2Sc2c(C)ccc(C)c21`, the activation was inactive: -28.6%.

`CCN1CCCC1=O`: the activation was inactive: 9.2%.

With `COc1ccc(NC(=O)Cn2c(=O)n(-c3ccc(C)cc3)c(=O)c3c2cnn3C)cc1`, the activation was inactive: -3.2%.

With `O=C(Nc1ccc2nc(SCC(=O)N3CCCC3)sc2c1)c1cccc(Cl)c1`, the activation is inactive: -18%.

`CCOC(=O)c1c(C)[nH]c(C)c1S(=O)(=O)N(C)CC(=O)Nc1ccc(C)c(N(C)C)c1`: the activation was inactive: 5.24%.

On to `CCOC(=O)c1cc2c(=O)n3ccccc3nc2n(Cc2ccco2)c1=NC(=O)c1c(F)cccc1Cl`, for which the activation is inactive: 0.68%.

As to `CC(C)CCNC(=O)C1CCN(c2nc3ccc(Cl)cc3[nH]2)CC1`, the activation is inactive: -8.6%.

Turning to `COc1ccc(C)cc1NC(=O)c1ccc(=O)n(Cc2ccccc2)c1`, the activation is inactive: -26.2%.

On to `COC(=O)c1cc2occc2n1Cc1nc(-c2cccc(Cl)c2)oc1C`, for which the activation is inactive: -6.49%.

In the case of `Cc1ccc(/C=C/c2onc(C)c2S(=O)(=O)N2CCC(C(=O)N3CCN(c4ccccc4F)CC3)CC2)cc1`, the activation was inactive: -6.1%.

Source of the values: PubChem BioAssay AID1346428 (National Center for Advancing Translational Sciences (NCATS), 2018).
